The data set deals with ATP. Nature of the data set: switch fluorescence ratio, 500 uM ATP over buffer (Cy3 cluster intensity, sum of 5 cycles each) (fold (ratio)); higher = stronger signal-on switching upon ATP binding; sequences stand for … in TCGTCGGCAGCGTCAGATGTGTATAAGAGACAGTTTTTTTTTTTTTTTTTTTTTTTTT…TC. As to conditions: aptamer strand: ATP DNA aptamer (quencher-CACCTGGGGGAGTATTGCGGAGGAAGG + anchor), 100 nM annealed; ATP concentration: 500 uM; one replicate. An outline of the steps: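 Switching-strand clusters labelled with Cy3 on a modified Illumina MiSeq flow-cell were annealed to 100 nM quencher-labelled ATP aptamer, imaged in selection buffer, and re-imaged after 15 min with 500 uM ATP at 22 °C. This was done over five cycles with NaOH stripping and re-annealing in between. The fluorescence ratio is summed target-cycle over summed buffer-cycle Cy3 intensity per cluster, averaged per switch-domain sequence, excluding clusters outside 100-1000 RFU.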

Values marked as one replicate rest on one cluster of the flow cell; about a third of the high ones do not repeat.
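Also: ATP exposure 15 min at 22 °C before imaging.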

Regarding TGACTGGCTC, the switch fluorescence ratio came out at 0.969.

With AGGCCTGGAT, the switch fluorescence ratio was determined as 1.02. For TAGCCCGACC the value was 1.06. AGATTCTCCT: the switch fluorescence ratio was 1.05. For GAGACAGGCG the value was 0.965; for CGCTGTAG, 1.07; for TTTATCATC, 1.03. For TATGGGGCGA the value was 1.01; for GTCCCGACGG, 1.06. On to TTGTTCATG, for which the switch fluorescence ratio stood at 1.02. For the sequence AAGTCCTACG, the switch fluorescence ratio was 1.08. On to GTGCCCCCAT, for which the switch fluorescence ratio amounted to 1.08. Then CGTGAGGGGA, with 0.998.

In the case of TGGGCAAGG, the switch fluorescence ratio stood at 0.997.

For the sequence CAGGAGTCAC, the switch fluorescence ratio turned out to be 1.12. Then CAACCATGTG, with 1.24. ACGTAGATAA: the switch fluorescence ratio turned out to be 1.17.

TTAATCTCGC: the switch fluorescence ratio stood at 1.01.

Consider TGCATTTAGC, for which the switch fluorescence ratio is 1.05. Then TTGAGCAAAT, with 1.22. Then CACGTCGGCT, with 1.05; and CATATTGGCG, with 1.05. For CCGGGGTTC the value was 1.21; for GTTCTTCCAA, 1.01. Take CGCAATGGTA: the switch fluorescence ratio worked out at 4.37.

As to CCGTATAGTA, the switch fluorescence ratio turned out to be 1.08. Then TTCACTCTA, with 1.11.

On to AATTGCTCGA, for which the switch fluorescence ratio amounted to 1.01. With TCTTGCCACT, the switch fluorescence ratio amounted to 0.99. For GTGGTGCGTT the value was 0.964; for ATGTGCCCCG, 0.982; for TGCGTCTGGT, 1.03. Then GCTTATCCTC, with 1.03; and CATGACAGAC, with 1.14. For ATTTACAGTC the value was 1.02; for CACACAATTG, 1.03. GGTGGCTACA: the switch fluorescence ratio was determined as 0.992. For CACCGTGTGC the value was 1.28; for GCCGCCTGGC, 0.937; for GGGAATCCTA, 1.01.

On to AATAATGGAT, for which the switch fluorescence ratio worked out at 1.02. For CAACTGCGCA the value was 1.17; for CTCGGTACCG, 0.923. Then TTCCGCACAT, with 2.41. Then TCATTCTCAA, with 1.05; and TCCTTGGGCA, with 1.08. On to ATTTTTAATG, for which the switch fluorescence ratio is 0.99. For AGGCCAAATG the value was 0.959; for ATCGACGTTA, 1.03; for TCGCTCTTGT, 1.03. For CACAATTCT the value was 1.08; for AATGGCGTGG, 1.02; for TACCTAGGAG, 1.05. Then CCTGTAAGCC, with 1.42; and GCCAGTATAA, with 0.959. Turning to GTTTGTTCAC, the switch fluorescence ratio worked out at 0.983. As to ACGAACCTGG, the switch fluorescence ratio came to 1.34. Then TGTCAACGGG, with 0.969.

For the sequence TGTCAATCAT, the switch fluorescence ratio worked out at 1.04. Then ATAGGGAACG, with 0.969.

For the sequence ATTTCTAAGA, the switch fluorescence ratio came to 0.998. For TATCTTGACG the value was 1; for ACTGTGAGTA, 1.06. For the sequence AAACTCGGGA, the switch fluorescence ratio turned out to be 1.01. Then CGGCCAGTTT, with 1.03; and CGCGCGATGT, with 0.984. With GACTGGGATA, the switch fluorescence ratio came out at 1.01. For ATCGAGCATT the value was 1.06.

Take CTACTGGCAG: the switch fluorescence ratio stood at 0.968. In the case of TAGGAGCACG, the switch fluorescence ratio worked out at 1.16. For ACTCATCGTG the value was 1.01.

As to TTACTAGTGG, the switch fluorescence ratio was 0.971.

Turning to CAGGGACACA, the switch fluorescence ratio turned out to be 1.1. Then TTCATAGGAT, with 1; and TGGTTAATTG, with 1.06; and ATTCCACTCG, with 1.08. Then CGCGGGGTGA, with 1.05; and GCCATTTTTG, with 0.993. For TAGTTAACGT the value was 1.03; for ACGGTCTATT, 1.01. In the case of GTAGGCAGCT, the switch fluorescence ratio was found to be 0.991. Then CGCACGAGTA, with 1; and GGAGAATGGT, with 0.997. Then TTCTGCTAAC, with 1.56.

For the sequence GAGGGACCAG, the switch fluorescence ratio stood at 0.976.

Turning to TTATATAACA, the switch fluorescence ratio stood at 1.01. Then ACAAATAGGC, with 1.05; and CGAGTTATCG, with 1.01; and ATGCCGCCTT, with 0.968. For ATAAAATAGT the value was 1.03. Then CTGGAAGGCC, with 1; and TATGACGGTC, with 0.903; and GTAAATCGGA, with 0.951.

As for ATAGATATTA, the switch fluorescence ratio stood at 1.01. For GACCTGACTC the value was 2.28; for AGTACCCTGC, 1.04. For ACGATTCCAT the value was 1.02; for CACGTTAGGG, 1.07; for TCAGATAACA, 1.02.

Turning to GGGATACATA, the switch fluorescence ratio amounted to 1.03. Then ACTGGCAGAT, with 0.985. For the sequence GTCATAGGGA, the switch fluorescence ratio was 0.986. Then TTCTGACAC, with 1.06; and GGTTGTTCTT, with 0.977. Then GTGATTAATA, with 1.08; and TGCACGACTA, with 1.04. Then AGAAGCATAT, with 1.1; and GTGGACCGTT, with 1.03; and CACGGCGGTT, with 1.01. Consider CTCAGTCGAG, for which the switch fluorescence ratio came to 1.03. Then AGTGATGGGC, with 1.01.

Turning to AAGAGTGAAA, the switch fluorescence ratio amounted to 0.971. Then GGCGAGGGGA, with 1.04; and ATAATGTGGC, with 1.01.

For TGGCTGAGGT, the switch fluorescence ratio turned out to be 1.09. For CAGGTTTTAA the value was 1.03; for GACAAGCGG, 1.05; for AGGATGCATA, 0.955.

Values taken from the supplement of paper PMC10126150.
